From the RNAGym collection of RNA variant scans (doi:10.1101/gad.245936.114)
This sample is rich in variants without activity.

B1: tRNA (parent)
chain: CUCUCGGUAGCCAAGUUGGUUUAAGGCGCAAGACUUUAAUUUAUCACUACGAAAUCUUGAGAUCGGGCGUUCGACUCGCCCCCGGGAGAUUUUUUCCUCGAGCAA

Variants of: B1
Assay: nonsense suppression (GFP-seq) (ratio to wild type); higher = more function; SUP4oc tRNA, yeast GFP reporter sort-seq
Outline: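 Each variant's nonsense suppression (GFPSEQ) is a cell-share-weighted bin median GFP/RFP relative to the unmutated parent tRNA. Yeast with genome-integrated tRNA variants from a ~3% random-mutation library, a galactose-driven GFP ochre reporter and RFP were grown in raffinose/galactose medium with 80 mg/L adenine, then sorted into GFP/RFP bins for Illumina sequencing. Variants needed ≥100 reads and ≥30 cells.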

Nonsense suppression, 1.02:
U21A

Nonsense suppression, 0.947:
U21A C75A

Nonsense suppression, 0.0271:
U20G G85C

Nonsense suppression, 0.493:
U21A A87G

Nonsense suppression, 0.495:
U20G U63G
U21A G28C

Nonsense suppression, 0.0372:
U21A G78C

Nonsense suppression, ≤ 0.026:
U20G C77A C80U
U20G C77U
U20G C82A
U20G C83G G86A
U20G G25A G61U G86U
U20G G25A G78A
U20G G26C
U20G G26U A30G G84A
U20G G26U G32U
U20G G32U C34U U55C C56A
U20G G59A
U20G G59C G66A
U20G G59C U76C
U20G G59U
U20G G67U
U20G G69A
U20G G69C
U20G G69C U70C G86U
U20G G86A
U20G G88A
U20G U21G A30U C68G
U20G U22A C56A A74U
U20G U22A G25U G32C C75G G84C
U20G U22G C27U
U20G U35G
U20G U58G
U20G U58G C68U
U20G U70A U71C
U20G U71C G73A
U20G U71G C81U
U20G U76A
U21A A23C
U21A A23C U55A G61A
U21A A23G C80U
U21A A23U
U21A A24G G66C
U21A A24U C56U
U21A A24U U55C U58G A89G
U21A A33C A62G A89C
U21A A33G G69U
U21A A33U C68A
U21A A54G
U21A A54G U70C U71G
U21A A54U C64G
U21A A74C G85C
U21A A74G C75A C77U C80U
U21A A89U
U21A C27A A33C U58C
U21A C27U C34U C83U
U21A C29G
U21A C29G G84U
U21A C29G U55G U71C
U21A C29U A60C G65A G69A G73U
U21A C56A G59A
U21A C72G C77G A89C
U21A C79A
U21A C80G G84C
U21A C83G G88U
U21A G25C G26U G61U G73C
U21A G25U C27G U55A U71C C72A G78A
U21A G26A
U21A G26C G69C C80G
U21A G59C C80A
U21A G66C
U21A G67A G85C
U21A G69C U76C
U21A G86U
U21A U22A G28C U55A G69A
U21A U22C A30G G65C

Nonsense suppression, 0.148:
U20G C56U

Nonsense suppression, 0.791:
U21A G61U

Nonsense suppression, 0.81:
U20G G85U

Nonsense suppression, 0.302:
U21A A60G

Nonsense suppression, 0.677:
U20G G73A

Nonsense suppression, 0.219:
U21A G66U C80G

Nonsense suppression, 1.06:
U20G U22G
U20G U63A
